Reference: the supplement of paper PMC5499739
Whole data set: some 16,000 sequences, median “Z-score” near -0.37, cut for the highest 2% near 3.1. This is one part of the list.

Test system: RBM10 RRM1-ZnF-RRM2 (GST-tagged construct)
Test: RNAcompete 7-mer binding Z-score; higher = stronger binding preference
In short: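 GST-tagged RBM10 constructs (20 pmol) were mixed with a designed pool of 241 399 RNAs up to 41 nt (1.5 nmol), transcribed from microarray-derived DNA templates. Mixing was in 1 ml Hepes pH 7.8 buffer with KCl, NaCl, glycerol, DTT, BSA and glutathione Sepharose beads. Binding ran 30 min at 4°C, followed by four 2-min washes at 4°C, and bound RNA was identified by microarray hybridisation. Each heptamer motif received a one-sided Z-score for enrichment across probes containing it.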

Row | Sequence | RNAcompete 7-mer binding Z-score
1 | CCACCGC | -0.73
2 | GGAAAAC | 1.44
3 | ACCAAGA | -0.413
4 | UGCUUGU | -0.857
5 | GCAUGGU | 0.807
6 | UCACACU | -0.759
7 | CCCUGUG | -0.471
8 | ACAGGAU | 1.51
9 | UGACCAG | 0.0969
10 | GCUGGCA | 0.0896
11 | CAAAUAA | -0.5
12 | CUGUCCC | -0.825
13 | ACACCUC | -0.759
14 | GCAAGGG | 3.28
15 | CAAAGGU | 1.62
16 | GACAACC | -0.5
17 | CCAGUCG | -0.439
18 | GUGCCUA | -0.366
19 | CUUAAAU | -0.77
20 | AUACGAC | -0.286
21 | UUCUGCA | -0.89
22 | UUUAGUA | -0.562
23 | UGUGAUC | -0.482

Row | Sequence | RNAcompete 7-mer binding Z-score
24 | CCUCCUG | -0.912
25 | CUUACUU | -0.894
26 | CAAUAUU | -0.519
27 | UGCCGAG | -0.213
28 | CUAGGUG | 0.745
29 | CCUUGUA | -0.795
30 | CUAUGGG | 1.08
31 | ACAUGGC | 0.614
32 | CUGUGCU | -0.777
33 | UACCAAU | -0.446
34 | UGAUGAG | 0.508
35 | CUAGGGG | 1.97
36 | AUCGCUC | -0.759
37 | GGCCCCG | -0.286
38 | UGAAUGG | 2.22
39 | GGAAGCG | 2.78
40 | CGUAGGU | 1.23
41 | UCUCUUU | -0.799
42 | UAGAGAU | 0.33
43 | UGCAUGU | -0.227
44 | CAGGGGU | 2.91
45 | AGCCCAG | -0.453
46 | GACUAAU | -0.442

Row | Sequence | RNAcompete 7-mer binding Z-score
47 | AUAGUAC | -0.195
48 | UAGAGUU | -0.0306
49 | CGGUAUG | 0.683
50 | GACCCGA | -0.657
51 | UCACGGU | -0.286
52 | UGCCGGA | -0.0707
53 | GAUCUUA | -0.661
54 | GAUCCGG | 0.0386
55 | CCGAUGG | 0.516
56 | CGGAUUG | 0.825
57 | GCCAGAG | 0.319
58 | GGACCUA | -0.151
59 | UCCAGGC | -0.581
60 | UGCUACA | -0.435
61 | ACAUGUG | 0.334
62 | UCACUGG | -0.00148
63 | AUACUGG | 0.213
64 | GCCUCCG | -0.668
65 | AGGGAGG | 3.18
66 | GUGUGUG | 1.02
67 | AGAGGCU | -0.369
68 | GCGGCAU | 0.428
69 | UACAACA | 0.00944

Row | Sequence | RNAcompete 7-mer binding Z-score
70 | UAAGAUC | -0.409
71 | UGCAGGA | 1.02
72 | CAGGACU | 0.45
73 | GUAGGUG | 3.25
74 | GACACGG | 1.16
75 | CGAAAAU | -0.475
76 | AUCUCGA | -0.726
77 | ACUGGGA | 2.1
78 | GCGGAAC | 1.09
79 | AUUGGAA | 1.15
80 | AAGCAGA | 0.672
81 | UCGUGCC | -0.653
82 | CAGUCCU | -0.967
83 | AUGUUAC | -0.468
84 | GUAAGUG | 1.23
85 | CAUUCCC | -0.701
86 | CGUUGAA | -0.235
87 | UGAGACA | 0.366
88 | CUAUCGU | -0.646
89 | AAUGCAG | 0.279
90 | AAAUGAG | 0.803
91 | GAUGACU | -0.34
92 | AUGACCG | -0.355

Row | Sequence | RNAcompete 7-mer binding Z-score
93 | UGUUUAC | -0.661
94 | UGGUUAG | 1.94
95 | UGACCCG | -0.464
96 | CCCCGUG | 0.0859
97 | GAGCCAC | -0.606
98 | CCCACAU | -0.77
99 | AACCCUC | -0.883
100 | CUCUCGG | -0.653
101 | AUCGGGU | 1.95
102 | GUCAUUA | -0.187
103 | AGUGACA | 0.501
104 | AUAUCAU | -0.486
105 | UGAAAGU | 0.334
106 | GACUGGU | 0.454
107 | UGUUCAG | -0.446
108 | CCGCGGU | 0.0714
109 | GUUGCUA | -0.173
110 | CACAUGU | -0.322
111 | GGUCGGU | 1.55
112 | CUUCGGU | -0.551
113 | GGGCCUU | -0.078
114 | AAACGCC | -0.785
115 | UUCUGAU | -0.69

Row | Sequence | RNAcompete 7-mer binding Z-score
116 | ACUGUUG | -0.515
117 | CGGUUUU | -0.256
118 | CCUACAC | -0.952
119 | UUAGUGA | 0.217
120 | UACUGUC | -0.81
121 | AUUAGCA | 0.141
122 | GCGAUGC | 0.45
123 | CGACCUC | -0.912
124 | CAACAGG | 1.32
125 | CCUAGCC | -0.861
126 | UCACGAU | -0.555
127 | AUUGCGA | -0.0488
128 | CGCGUCU | -0.617
129 | AAAGUGG | 2.41
130 | CUAGCCC | -0.839
131 | UCUUCGC | -0.737
132 | GUUACGG | 0.851
133 | CAUGAUU | -0.672
134 | CCUUAUA | -0.934
135 | GGGAGAC | 2.08
136 | AGAGCGC | -0.657
137 | CUCGCUC | -0.694
138 | CAUCUAC | -0.857

Row | Sequence | RNAcompete 7-mer binding Z-score
139 | UCGGGAG | 1.18
140 | CUCAUUU | -1.06
141 | GGCGUGA | 1.34
142 | CUUCUUC | -0.854
143 | UCCCAAC | -0.664
144 | UUGGCCU | -0.602
145 | UGGCUCA | -0.275
146 | UAAAUUU | -0.69
147 | UUUCUAA | -0.592
148 | CGUUGGG | 1.88
149 | CAUAGUA | -0.078
150 | ACGUCUU | -0.763
151 | AGCUCCG | -0.803
152 | CUGUCAA | -0.646
153 | AUCGGUU | -0.289
154 | UUGCCUA | -0.763
155 | UCAGCUG | -0.522
156 | CGGACUU | -0.344
157 | AGAAGUC | -0.395
158 | ACACAUU | -0.744
159 | GGGCGGA | 3.09
160 | CACUAUA | -0.519
161 | GUAUAGU | 0.239

Row | Sequence | RNAcompete 7-mer binding Z-score
162 | CCGACCC | -0.792
163 | UACCCAG | -0.748
164 | CGUGAUG | 0.625
165 | GCCGGGA | 0.836
166 | CAAUUAU | -0.602
167 | GGCGGGA | 3.23
168 | AUGAAAG | 1.01
169 | AUUUGGA | 0.632
170 | CCGCCCC | -0.774
171 | AUGAUCG | -0.0634
172 | CGCGGCC | -0.417
173 | GUGAGUA | 1.18
174 | UGUUACA | -0.449
175 | UACGCGU | -0.347
176 | UCGCACG | -0.103
177 | UUAAGAG | 0.374
178 | GGGUGUU | 2.46
179 | AACGGUA | 0.898
180 | UAUGAGU | 0.173
181 | UAGCACG | -0.154
182 | GAACACA | -0.0233
183 | AUAGUGC | 0.192
184 | CAAUGAG | 0.891
